# Measurements: the supplement of paper PMC8728848
# The other results are listed elsewhere or left out.
# B1: LngA (Escherichia coli) (protein)
# chain: MLSVYNRTQKFKAEARKKIAKYHELRKQRGMSLLEVIIVLGIIGTIAAGVVILAQRAFDSRAVTDLVTNTNTVRVRMKDAYQRDGKYPDFVDPLSLTANTIKTDTSGIPAAQLVQLGKITPDEVRNNISGDFIAIGGALTSNGAQVKKGFAIELNGLSQEQCRSILGQVGNNWEYVAIGTSASGSYAMTATGVDMSVAASTTVLRSLGNNGQTTLTADKILSTCTAQVNSITLGSR
# How the values were obtained:
# Test in all cases: glycan array binding signal (z-score within array); higher = stronger binding
# Conditions in all cases: glycan notation: IUPAC condensed, linker removed
# [1] = biological target: Gal(b1-4)GlcNAc(b1-2)Man(a1-6)[Man(a1-3)]Man(b1-4)GlcNAc(b1-4)GlcNAc
# Method in brief: (§1)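 Glycan array data were curated from 3228 arrays in the Consortium for Functional Glycomics database and kept only where the protein sequence was available. Glycan names were converted to IUPAC-condensed notation, and columns mapping to the same glycan were averaged. The binding signal is a within-array Z-score, averaged across arrays of the same protein sequence at different concentrations or buffers and across linkers. Negative Z-scores can be read as non-binding.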
# [2] = biological target: Gal(b1-4)GlcNAc(b1-2)[Gal(b1-4)GlcNAc(b1-4)]Man(a1-3)[Gal(b1-4)GlcNAc(b1-2)Man(a1-6)]Man(b1-4)GlcNAc(b1-4)GlcNAc
# Method in brief: as §1
# [3] = biological target: Gal(b1-4)GlcNAc(b1-2)[Gal(b1-4)GlcNAc(b1-4)]Man(a1-3)[Gal(b1-4)GlcNAc(b1-2)[Gal(b1-4)GlcNAc(b1-6)]Man(a1-6)]Man(b1-4)GlcNAc(b1-4)GlcNAc
# Method in brief: as §1
# [4] = biological target: Gal(b1-4)GlcNAc(b1-2)[Gal(b1-4)GlcNAc(b1-4)]Man(a1-3)[GlcNAc(b1-4)][Gal(b1-4)GlcNAc(b1-2)Man(a1-6)]Man(b1-4)GlcNAc(b1-4)GlcNAc
# Method in brief: as §1
# [5] = biological target: Gal(b1-4)GlcNAc(b1-2)[Gal(b1-4)GlcNAc(b1-4)]Man(a1-3)[GlcNAc(b1-4)][Gal(b1-4)GlcNAc(b1-2)[Gal(b1-4)GlcNAc(b1-6)]Man(a1-6)]Man(b1-4)GlcNAc(b1-4)GlcNAc
# Method in brief: as §1
# [6] = biological target: Gal(b1-4)GlcNAc(b1-2)[Gal(b1-4)GlcNAc(b1-6)]Man(a1-6)[Gal(b1-4)GlcNAc(b1-2)Man(a1-3)]Man(b1-4)GlcNAc(b1-4)GlcNAc
# Method in brief: as §1
# [7] = biological target: Gal(b1-4)GlcNAc(b1-2)[Gal(b1-4)GlcNAc(b1-6)]Man(a1-6)[Gal(b1-4)GlcNAc(b1-2)Man(a1-3)]Man(b1-4)GlcNAc(b1-4)[Fuc(a1-6)]GlcNAc
# Method in brief: as §1
# [8] = biological target: Gal(b1-4)GlcNAc(b1-2)[Gal(b1-4)GlcNAc(b1-6)]Man(a1-6)[GlcNAc(b1-4)][Gal(b1-4)GlcNAc(b1-2)Man(a1-3)]Man(b1-4)GlcNAc(b1-4)GlcNAc
# Method in brief: as §1
# [9] = biological target: Gal(b1-4)GlcNAc(b1-2)[Gal(b1-4)GlcNAc(b1-6)]Man(a1-6)[GlcNAc(b1-4)][Gal(b1-4)GlcNAc(b1-2)[Gal(b1-4)GlcNAc(b1-4)]Man(a1-3)]Man(b1-4)GlcNAc(b1-4)[Fuc(a1-6)]GlcNAc
# Method in brief: as §1
# [10] = biological target: Gal(b1-4)GlcNAc(b1-3)Gal(b1-3)GalNAc
# Method in brief: as §1
# [11] = biological target: Gal(b1-4)GlcNAc(b1-3)Gal(b1-3)GlcNAc
# Method in brief: as §1
# [12] = biological target: Gal(b1-4)GlcNAc(b1-3)Gal(b1-4)Glc
# Method in brief: as §1
# [13] = biological target: Gal(b1-4)GlcNAc(b1-3)Gal(b1-4)GlcNAc
# Method in brief: as §1
# [14] = biological target: Gal(b1-4)GlcNAc(b1-3)Gal(b1-4)GlcNAc(b1-2)Man(a1-3)[Gal(b1-4)GlcNAc(b1-3)Gal(b1-4)GlcNAc(b1-2)Man(a1-6)]Man(b1-4)GlcNAc(b1-4)GlcNAc
# Method in brief: as §1
# [15] = biological target: Gal(b1-4)GlcNAc(b1-3)Gal(b1-4)GlcNAc(b1-2)Man(a1-3)[Gal(b1-4)GlcNAc(b1-3)Gal(b1-4)GlcNAc(b1-2)Man(a1-6)]Man(b1-4)GlcNAc(b1-4)[Fuc(a1-6)]GlcNAc
# Method in brief: as §1
# [16] = biological target: Gal(b1-4)GlcNAc(b1-3)Gal(b1-4)GlcNAc(b1-2)[Gal(b1-4)GlcNAc(b1-3)Gal(b1-4)GlcNAc(b1-6)]Man(a1-6)[Gal(b1-4)GlcNAc(b1-3)Gal(b1-4)GlcNAc(b1-2)Man(a1-3)]Man(b1-4)GlcNAc(b1-4)GlcNAc
# Method in brief: as §1
# [17] = biological target: Gal(b1-4)GlcNAc(b1-3)Gal(b1-4)GlcNAc(b1-2)[Gal(b1-4)GlcNAc(b1-3)Gal(b1-4)GlcNAc(b1-6)]Man(a1-6)[Gal(b1-4)GlcNAc(b1-3)Gal(b1-4)GlcNAc(b1-2)Man(a1-3)]Man(b1-4)GlcNAc(b1-4)[Fuc(a1-6)]GlcNAc
# Method in brief: as §1
# [18] = biological target: Gal(b1-4)GlcNAc(b1-3)Gal(b1-4)GlcNAc(b1-3)Gal(b1-4)GlcNAc
# Method in brief: as §1
# [19] = biological target: Gal(b1-4)GlcNAc(b1-3)Gal(b1-4)GlcNAc(b1-3)Gal(b1-4)GlcNAc(b1-2)Man(a1-3)[Gal(b1-4)GlcNAc(b1-3)Gal(b1-4)GlcNAc(b1-3)Gal(b1-4)GlcNAc(b1-2)Man(a1-6)]Man(b1-4)GlcNAc(b1-4)GlcNAc
# Method in brief: as §1
# [20] = biological target: Gal(b1-4)GlcNAc(b1-3)Gal(b1-4)GlcNAc(b1-3)Gal(b1-4)GlcNAc(b1-2)Man(a1-3)[Gal(b1-4)GlcNAc(b1-3)Gal(b1-4)GlcNAc(b1-3)Gal(b1-4)GlcNAc(b1-2)Man(a1-6)]Man(b1-4)GlcNAc(b1-4)[Fuc(a1-6)]GlcNAc
# Method in brief: as §1
# [21] = biological target: Gal(b1-4)GlcNAc(b1-3)Gal(b1-4)GlcNAc(b1-3)Gal(b1-4)GlcNAc(b1-2)[Gal(b1-4)GlcNAc(b1-3)Gal(b1-4)GlcNAc(b1-3)Gal(b1-4)GlcNAc(b1-6)]Man(a1-6)[Gal(b1-4)GlcNAc(b1-3)Gal(b1-4)GlcNAc(b1-3)Gal(b1-4)GlcNAc(b1-2)Man(a1-3)]Man(b1-4)GlcNAc(b1-4)[Fuc(a1-6)]GlcNAc
# Method in brief: as §1
# [22] = biological target: Gal(b1-4)GlcNAc(b1-3)Gal(b1-4)GlcNAc(b1-3)Gal(b1-4)GlcNAc(b1-3)Gal(b1-4)GlcNAc(b1-2)Man(a1-3)[Gal(b1-4)GlcNAc(b1-3)Gal(b1-4)GlcNAc(b1-3)Gal(b1-4)GlcNAc(b1-3)Gal(b1-4)GlcNAc(b1-2)Man(a1-6)]Man(b1-4)GlcNAc(b1-4)GlcNAc
# Method in brief: as §1
binder,measurement,setting,value
B1,glycan array binding signal (z-score),[1],-0.463
same,glycan array binding signal (z-score),[2],0.247
same,glycan array binding signal (z-score),[3],-0.565
same,glycan array binding signal (z-score),[4],-0.15
same,glycan array binding signal (z-score),[5],0.155
same,glycan array binding signal (z-score),[6],-0.145
same,glycan array binding signal (z-score),[7],-0.513
same,glycan array binding signal (z-score),[8],-0.286
same,glycan array binding signal (z-score),[9],-0.507
same,glycan array binding signal (z-score),[10],-0.312
same,glycan array binding signal (z-score),[11],-0.538
same,glycan array binding signal (z-score),[12],-0.362
same,glycan array binding signal (z-score),[13],-0.338
same,glycan array binding signal (z-score),[14],3.2
same,glycan array binding signal (z-score),[15],-0.289
same,glycan array binding signal (z-score),[16],1.57
same,glycan array binding signal (z-score),[17],4.27
same,glycan array binding signal (z-score),[18],-0.468
same,glycan array binding signal (z-score),[19],3.43
same,glycan array binding signal (z-score),[20],-0.163
same,glycan array binding signal (z-score),[21],2.23
same,glycan array binding signal (z-score),[22],0.575
